Out of some 52,000 compounds screened, about 1,700 (3.3%) were called active. Rule as the data show it: active = survival mostly below about 52% (no sharp cut-off); inactive = mostly above about 56%. The list shows a part of the results.

The subject of the assay is Wild type. Briefly: growth inhibition of S. aureus wild type versus tarO mutant, primary screen, teichoic acid synthesis inhibitors, RN4220, OD600 (AID 463173). The conditions noted are these: S. aureus RN4220 wild type/DeltatarO growth, OD600, 18 h, hits give low values, screened at 18.75 µg/mL (by protocol).
Take `Cc1ccccc1C(=O)Nc1ccccc1C(=O)OCc1cc(=O)n2ccsc2n1`: the survival was inactive: 98%. Next, `CN1C(=O)CC(=O)N(C)c2cc(S(=O)(=O)N(C)Cc3ccccc3)ccc21`: inactive: 24%. With `COc1cccc(N2CC(NC(=O)Cc3cccs3)CC2=O)c1` (stereo not drawn) the figure was inactive: 73%. With `CCOc1ccc(OCC)c(Nc2nc3ccccc3c3nnc(C)n23)c1` the figure was inactive: 81%. `Cc1c(Cl)cccc1NS(=O)(=O)c1ccc2[nH]cc(C(=O)NC3CCCC3)c(=O)c2c1`: the survival was active: 11%. Regarding `CCCCN(CCCC)CCNC(=O)c1cn(C)c2ccc(S(=O)(=O)N3CCOCC3)cc2c1=O`, the survival was inactive: 84%.

For the molecule `CC(=O)c1cccc(NS(=O)(=O)c2ccc3[nH]c4c(c3c2)CCCCCC4)c1`, the survival was inactive: 63%. For the molecule `Cc1ccc(-n2ncc(C(=O)NCCN3CCN(C)CC3)c2C2CCN(C(=O)OC(C)(C)C)CC2)c(C)c1`, the survival was inactive: 79%. With `Cc1ccc(S(=O)(=O)c2nc(-c3cccs3)oc2N2CCCCC2)cc1`, the survival was inactive: 50%. Next, `COc1ccc2c(c1)c1c(c(=O)n(-c3ccc(OC)c(OC)c3)c(=O)n1Cc1ccccc1C)n2C`: inactive: 73%; `O=C(O)CC(c1ccc(F)cc1)c1ccco1` (stereo not drawn): inactive: 106%; `N#CC1=C(N)SC(N)=C(C#N)C1CCC1CCCCC1`: inactive: 49%. Next, `COc1ccc(N(C(=O)/C=C\C(=O)Nc2ccc(Cl)cc2)C(C(=O)NCc2ccco2)c2ccc(C)cc2)cc1` (stereo not drawn): inactive: 111%; `COc1ccc(NC(=O)CCS(=O)(=O)c2nc(-c3cccs3)cc(C(F)(F)F)n2)cc1OC`: inactive: 100%. Next, `CN(Cc1ccccc1)C(=O)CN1C(=O)CSc2ccc(S(=O)(=O)N3CCOCC3)cc21`: inactive: 75%; `COc1ccc(OC)c(S(=O)(=O)Nc2cc3c(cc2C)n(C)c(=O)c(=O)n3C)c1`: inactive: 82%. In the case of `CCc1ccc(-c2cn3c(n2)sc2cc(C(=O)NCCc4ccc(OC)cc4OC)ccc23)cc1`, the survival was inactive: 78%.

On to `COc1ccccc1NC(=O)Cn1c(=O)n(Cc2ccc3c(c2)OCO3)c(=O)c2oc3ccccc3c21`, for which the survival is inactive: 74%.

Consider `O=C(c1noc2c1CCCCC2)N1CCN(c2ccc(Cl)cc2)CC1`, for which the survival is inactive: 73%. Next, `c1ccc(Cn2nnnc2C(c2ccccc2)N2CCN(Cc3ccncc3)CC2)cc1` (stereo not drawn): inactive: 100%. Regarding `C#CC(C)(C)NS(=O)(=O)c1cc(-c2nnc(Nc3ccc(C)cc3)c3ccccc23)ccc1C`, the survival is inactive: 96%.

For `Cc1ccc(NC(=O)NCc2ccc3c(c2)CCN3C(=O)c2ccccc2)c(Cl)c1`, the survival was inactive: 84%. With `Cc1ccc(NC(=O)CN(c2ccccc2)S(=O)(=O)N(C)C)cc1Cl` the figure was inactive: 67%.
